In the RNAGym collection of RNA variant scans (doi:10.1093/nar/gkz1192):
The source gives no read counts; variants with many changes may rest on few reads.

B1: CPEB3 Ribozyme (parent)
chain: UAACAGGGGGCCACAGCAGAAGCGUUCACGUCGCAGCCCCUGUCAGAUUCUGGUGAAUCUGCGAAUUCUGCUGUAUAUCUC

Variants of: B1
Assay: self-cleavage, relative activity (ratio to wild type); higher = more cleavage; in vitro, sequencing
Method in brief: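 Barcoded CPEB3 ribozyme mutants, produced by rounds of error-prone PCR, self-cleaved while being transcribed with T7 RNA polymerase for 5 hours at 37°C and during a subsequent 15 min DNase I step before EDTA was added. Sequencing of template-switched cDNA on Illumina gave cleaved and total reads, and DNA sequencing assigned barcodes to variants. Each variant's relative activity is its cleaved/total read fraction divided by the unmutated ribozyme's fraction, averaged across three batches. A variant needed a minimum of 5 reads.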

Variant | self-cleavage
A18G A56G U67C U74A | 0.18
A18G A56G U72A U78C | 0.14
A18G A56G U72C U78C U80C | 0.49
A18G A56U A64G | 0.23
A18G A56U U69G | 0.29
A18G A56U U72A | 0.17
A18G A57G U58A A65U A75G U78C | 0.13
A18G A57G U60C A64G | 0.2
A18G A57G U67C | 0.18
A18G A57G U67G | 0.09
A18G A57G U76C U78C | 0.44
A18G A57U U60C | 0.18
A18G A64G A65G A77G | 0.14
A18G A64G U66C C68A | 0.22
A18G A64U A77U | 0.27
A18G A64U U67A | 0.21
A18G A65G A77U C81U | 0.38
A18G A65G U69A U72C | 0.2
A18G A65G U78C | 0.32
A18G A65G U78C U80A | 0.17
A18G A77C U80C | 0.72
A18G A77G U78C | 0.45
A18G A77U U78A | 0.8
A18G A77U U78C | 0.81

Variant | self-cleavage
A18G C23A G42A U74C A75G | 0.06
A18G C23A U78A | 0.31
A18G C23U A47G | 0.25
A18G C23U U25C U31A U41A A47U U72C | 0.1
A18G C23U U26A U31G U48C U49C | 0.06
A18G C23U U31A U41A | 0.22
A18G C27A A28G A35G | 0.21
A18G C27U A35U C37U A64U U67A A77U | 0.04
A18G C27U U74C | 0.27
A18G C29A U51C A75G | 0.17
A18G C29G A75C U78C | 0.07
A18G C29U A56U A65G | 0.31
A18G C29U U41C C68A U69A | 0.1
A18G C29U U41G U54G | 0.07
A18G C29U U49C A57U | 0.13
A18G C29U U49C U69C A77G | 0.21
A18G C32A C62U | 0.07
A18G C32U A35G A45U | 0.12
A18G C32U A45G A57G U66C | 0.06
A18G C32U G70A U72G | 0.06
A18G C32U U49C U51A U69A | 0.06
A18G C32U U51A | 0.09
A18G C34G C81U | 0.39
A18G C34U U41C U43A U48C U67C | 0.05

Variant | self-cleavage
A18G C37U A45G U51A | 0.12
A18G C38A A64G | 0.09
A18G C38A C40U G52A | 0.07
A18G C38G C81U | 0.05
A18G C38G U43C G73U U78C | 0.05
A18G C38G U60C | 0.09
A18G C38U U43C U60A | 0.13
A18G C38U U49C G55U A64G U69A | 0.04
A18G C39A A57G U72A | 0.08
A18G C39A U43A A45G U58C | 0.1
A18G C39A U49C U54C A57G U72A U80C | 0.04
A18G C39G U49C U76A | 0.03
A18G C39U A64G U72C | 0.09
A18G C39U U67C U72C | 0.06
A18G C40A U43A U69C | 0.32
A18G C40A U72C | 0.27
A18G C40U U41A U51C U60C | 0
A18G C44A U67C | 0.14
A18G C44G G55A | 0.2
A18G C50U U74A U78C | 1.2
A18G C59G C62U U74C | 0.17
A18G C62G U74A | 0.22
A18G C62U A64G U72A | 0.21
A18G G19A A20C A57G | 0.04

Variant | self-cleavage
A18G G19A A20G | 0.27
A18G G19A A28U U41A G63U | 0.19
A18G G19C A20G U41A U72G | 0.18
A18G G19U A21G C23U U25C | 0.27
A18G G19U A45U U69C | 0.06
A18G G19U A56G U67C | 0.1
A18G G19U C23G U25A U43C A57G U80C | 0.04
A18G G19U U26C A35U U43C | 0.05
A18G G19U U66C U76A | 0.07
A18G G22A U25C U67A U80C | 0.05
A18G G22C A28G U51A | 0.25
A18G G22C A57G | 0.06
A18G G22C C32U | 0.39
A18G G22C U31C A65G | 0.06
A18G G22U U26C A64G U78C | 0.15
A18G G24A C40U A45G U69A U72A | 0.21
A18G G24A G33A U51G A64U U69G | 0.04
A18G G24A U26C U67A | 0.19
A18G G24A U49C | 0.16
A18G G24A U51A A64G | 0.16
A18G G24C A35G A64U U72A A75U | 0.06
A18G G24C U25C | 0.2
A18G G24C U60C | 0.21
A18G G24U C81G | 0.2

Variant | self-cleavage
A18G G24U U49C | 0.4
A18G G30A A77G | 0.34
A18G G30A U31A U60A | 0.48
A18G G30A U54A | 0.12
A18G G30C A56G G63A A77U | 0.17
A18G G30C U43C A47G U58C A64G U72A | 0.05
A18G G33A A35U G36A A45G A75U | 0.2
A18G G33A A45G G73A | 0.09
A18G G33A A65G C71U U80A | 0.12
A18G G33A U41C A45G U49C A77G | 0.16
A18G G33A U43A A77U | 0.16
A18G G33C A65G U80A | 0.16
A18G G33U U72G U80A | 0.07
A18G G36A A45G U54C U67C U74A | 0.07
A18G G36A U43C A57G U58C | 0.15
A18G G36U C39G C50U | 0.15
A18G G46U A57G U76A | 0.1
A18G G46U U48C | 0.2
A18G G55C A64C | 0.13
A18G G55C A64G U69A | 0.13
A18G G61C A77G | 0.2
A18G G63A U80C | 0.6
A18G G63C U66C C71A | 0.13
A18G G63C U80C | 0.71

Variant | self-cleavage
A18G G73A U78C | 0.98
A18G U25A A35G C40U U69C | 0.12
A18G U25A A57U | 0.17
A18G U25A U26C A57G | 0.2
A18G U25A U41C U49A G52C C68G U69C | 0.11
A18G U25A U67C U74G | 0.11
A18G U25C A45G U58C | 0.29
A18G U25C A47G U72G U78A | 0.04
A18G U25C A47U U49C U66A U69A U80C | 0.15
A18G U25C A57G U78A U80C | 0.14
A18G U25C C37U | 0.19
A18G U25C C40U U58C C62U U80C | 0.04
A18G U25C G30A C37G U48C U66C | 0.18
A18G U25C G30A G63A U78C | 0.06
A18G U25C G33C U60A A77G U78C | 0.05
A18G U25C G46C U49A U69C U72C | 0.21
A18G U25C U26C A35U | 0.07
A18G U25C U31C C32U U48A U69C | 0.05
A18G U25C U41A U49A | 0.06
A18G U25C U41C | 0.3
A18G U25C U41C C62U | 0.26
A18G U25C U43C U49A U51C A64G | 0.07
A18G U25C U48A | 0.05
A18G U25C U49C G53C U74A | 0.28

Variant | self-cleavage
A18G U25C U54C G73U U76C | 0.07
A18G U25C U54G U80C | 0.26
A18G U25G A45G | 0.37
A18G U25G A47G G53A A56G | 0.33
A18G U25G C27U U69A U80C | 0.07
A18G U25G U58G | 0.29
A18G U26A A28G G36A U48A U72A | 0.1
A18G U26A A35G U41C U51A U54C A56U | 0.14
A18G U26A A65G U72C | 0.16
A18G U26A A75G | 0.27
A18G U26A C29U U76A | 0.22
A18G U26A C68A U69G | 0.21
A18G U26A U41C A57G U72A | 0.09
A18G U26A U48A | 0.26
A18G U26A U48A U67C | 0.05
A18G U26A U49C | 0.14
A18G U26A U51C A56C | 0.21
A18G U26A U72A | 0.33
A18G U26A U80C | 0.9
A18G U26C A28C C40G U67C | 0.16
A18G U26C A28G G33A U54A U66C U78C | 0.07
A18G U26C A28G G33C U43C U54C U76A | 0.18
A18G U26C A35G | 0.36
